# Data as given in the supplement of paper PMC8728848.
# Some of the results follow.
# B1: PfulAvr4 (Pseudocercospora fuligena) (protein)
# chain: HHHHHHDYKDDDDKTYVQDKTPAFVCPAADIKTTKCLGPKDCLYPSPKTCNGYIQCSPADDSYLTGIIHEMPCPSGLLWNDNKKWCDWPENTTCGLVKSAGATEVDATKQGPTPGKYHG
# Columns and labels:
# Assay in all cases: glycan array binding signal (z-score within array); higher = stronger binding
# Conditions in all cases: glycan notation: IUPAC condensed, linker removed
# [1] = target: Fuc(a1-3)[Gal3S(b1-4)]GlcNAc6S
# Outline: (§1)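 Glycan array binding is given as a within-array Z-score, which can be read as non-binding when negative. The arrays, 3228 of them, came from the Consortium for Functional Glycomics database and were retained only where the protein sequence was available. Z-scores were averaged across arrays of the same protein sequence at different concentrations or buffers and across linkers.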
# [2] = target: Fuc(a1-3)[GalNAc(b1-4)]GlcNAc
# Outline: as §1
# [3] = target: Fuc(a1-3)[GalNAc(b1-4)]GlcNAc6S
# Outline: as §1
# [4] = target: Fuc(a1-4)GlcNAc
# Outline: as §1
# [5] = target: Fuc(b1-3)GlcNAc
# Outline: as §1
# [6] = target: Gal(a1-2)Gal
# Outline: as §1
# [7] = target: Gal(a1-3)Gal
# Outline: as §1
# [8] = target: Gal(a1-3)Gal(b1-3)GlcNAc
# Outline: as §1
# [9] = target: Gal(a1-3)Gal(b1-3)GlcNAc(b1-2)Man
# Outline: as §1
# [10] = target: Gal(a1-3)Gal(b1-3)GlcNAc(b1-2)Man(a1-3)[Gal(a1-3)Gal(b1-3)GlcNAc(b1-2)Man(a1-6)]Man(b1-4)GlcNAc(b1-4)GlcNAc
# Outline: as §1
# [11] = target: Gal(a1-3)Gal(b1-3)GlcNAc(b1-3)GalNAc
# Outline: as §1
# [12] = target: Gal(a1-3)Gal(b1-3)GlcNAc(b1-6)GalNAc
# Outline: as §1
# [13] = target: Gal(a1-3)Gal(b1-3)[Fuc(a1-4)]GlcNAc(b1-2)Man(a1-3)[Gal(a1-3)Gal(b1-3)[Fuc(a1-4)]GlcNAc(b1-2)Man(a1-6)]Man(b1-4)GlcNAc(b1-4)GlcNAc
# Outline: as §1
# [14] = target: Gal(a1-3)Gal(b1-4)Glc
# Outline: as §1
# [15] = target: Gal(a1-3)Gal(b1-4)GlcNAc
# Outline: as §1
# [16] = target: Gal(a1-3)Gal(b1-4)GlcNAc(b1-2)Man
# Outline: as §1
# [17] = target: Gal(a1-3)Gal(b1-4)GlcNAc(b1-2)Man(a1-3)[Gal(a1-3)Gal(b1-4)GlcNAc(b1-2)Man(a1-6)]Man(b1-4)GlcNAc(b1-4)GlcNAc
# Outline: as §1
# [18] = target: Gal(a1-3)Gal(b1-4)GlcNAc(b1-3)GalNAc
# Outline: as §1
# [19] = target: Gal(a1-3)Gal(b1-4)GlcNAc(b1-6)GalNAc
# Outline: as §1
# [20] = target: Gal(a1-3)Gal(b1-4)[Fuc(a1-3)]GlcNAc
# Outline: as §1
# [21] = target: Gal(a1-3)Gal(b1-4)[Fuc(a1-3)]GlcNAc(b1-2)Man(a1-3)[Gal(a1-3)Gal(b1-4)[Fuc(a1-3)]GlcNAc(b1-2)Man(a1-6)]Man(b1-4)GlcNAc(b1-4)GlcNAc
# Outline: as §1
# [22] = target: Gal(a1-3)GalNAc
# Outline: as §1
# [23] = target: Gal(a1-3)[Gal(a1-4)]Gal(b1-4)GlcNAc
# Outline: as §1
# [24] = target: Gal(a1-4)Gal(b1-3)GlcNAc(b1-2)Man(a1-3)[Gal(a1-4)Gal(b1-3)GlcNAc(b1-2)Man(a1-6)]Man(b1-4)GlcNAc(b1-4)GlcNAc
# Outline: as §1
# [25] = target: Gal(a1-4)Gal(b1-4)Glc
# Outline: as §1
# [26] = target: Gal(a1-4)Gal(b1-4)GlcNAc
# Outline: as §1
# [27] = target: Gal(a1-4)Gal(b1-4)GlcNAc(b1-2)Man(a1-3)[Gal(a1-4)Gal(b1-4)GlcNAc(b1-2)Man(a1-6)]Man(b1-4)GlcNAc(b1-4)GlcNAc
# Outline: as §1
# [28] = target: Gal(a1-4)Gal(b1-4)GlcNAc(b1-3)Gal(b1-4)Glc
# Outline: as §1
# [29] = target: Gal(a1-4)GlcNAc
# Outline: as §1
# [30] = target: Gal(a1-6)Glc
# Outline: as §1
# [31] = target: Gal(b1-2)Gal
# Outline: as §1
# [32] = target: Gal(b1-3)Gal
# Outline: as §1
# [33] = target: Gal(b1-3)Gal(b1-4)GlcNAc
# Outline: as §1
# [34] = target: Gal(b1-3)GalNAc
# Outline: as §1
# [35] = target: Gal(b1-3)GalNAc(a1-3)[Fuc(a1-2)]Gal(b1-4)Glc
# Outline: as §1
# [36] = target: Gal(b1-3)GalNAc(a1-3)[Fuc(a1-2)]Gal(b1-4)GlcNAc
# Outline: as §1
# [37] = target: Gal(b1-3)GalNAc(b1-3)Gal
# Outline: as §1
# [38] = target: Gal(b1-3)GalNAc(b1-3)Gal(a1-4)Gal(b1-4)Glc
# Outline: as §1
# [39] = target: Gal(b1-3)GalNAc(b1-4)Gal(b1-4)Glc
# Outline: as §1
# [40] = target: Gal(b1-3)GalNAc(b1-4)[Neu5Ac(a2-3)]Gal(b1-4)Glc
# Outline: as §1
# [41] = target: Gal(b1-3)GlcNAc
# Outline: as §1
# [42] = target: Gal(b1-3)GlcNAc(a1-3)Gal(b1-4)GlcNAc
# Outline: as §1
# [43] = target: Gal(b1-3)GlcNAc(a1-6)Gal(b1-4)GlcNAc
# Outline: as §1
# [44] = target: Gal(b1-3)GlcNAc(b1-2)Man
# Outline: as §1
# [45] = target: Gal(b1-3)GlcNAc(b1-2)Man(a1-3)[Gal(b1-3)GlcNAc(b1-2)Man(a1-6)]Man(b1-4)GlcNAc(b1-4)GlcNAc
# Outline: as §1
binder,measurement,setting,value
B1,glycan array binding signal (z-score),[1],-0.035
same,glycan array binding signal (z-score),[2],-0.015
same,glycan array binding signal (z-score),[3],-0.177
same,glycan array binding signal (z-score),[4],0.187
same,glycan array binding signal (z-score),[5],-0.033
same,glycan array binding signal (z-score),[6],-0.068
same,glycan array binding signal (z-score),[7],-0.087
same,glycan array binding signal (z-score),[8],-0.1
same,glycan array binding signal (z-score),[9],-0.173
same,glycan array binding signal (z-score),[10],0.128
same,glycan array binding signal (z-score),[11],-0.191
same,glycan array binding signal (z-score),[12],-0.006
same,glycan array binding signal (z-score),[13],-0.138
same,glycan array binding signal (z-score),[14],-0.096
same,glycan array binding signal (z-score),[15],-0.07
same,glycan array binding signal (z-score),[16],-0.157
same,glycan array binding signal (z-score),[17],0.001
same,glycan array binding signal (z-score),[18],-0.111
same,glycan array binding signal (z-score),[19],-0.144
same,glycan array binding signal (z-score),[20],-0.176
same,glycan array binding signal (z-score),[21],-0.092
same,glycan array binding signal (z-score),[22],-0.078
same,glycan array binding signal (z-score),[23],-0.061
same,glycan array binding signal (z-score),[24],0.042
same,glycan array binding signal (z-score),[25],-0.097
same,glycan array binding signal (z-score),[26],-0.118
same,glycan array binding signal (z-score),[27],-0.032
same,glycan array binding signal (z-score),[28],-0.197
same,glycan array binding signal (z-score),[29],-0.072
same,glycan array binding signal (z-score),[30],-0.04
same,glycan array binding signal (z-score),[31],-0.01
same,glycan array binding signal (z-score),[32],-0.139
same,glycan array binding signal (z-score),[33],-0.2
same,glycan array binding signal (z-score),[34],-0.133
same,glycan array binding signal (z-score),[35],-0.132
same,glycan array binding signal (z-score),[36],-0.219
same,glycan array binding signal (z-score),[37],-0.057
same,glycan array binding signal (z-score),[38],-0.044
same,glycan array binding signal (z-score),[39],-0.039
same,glycan array binding signal (z-score),[40],-0.115
same,glycan array binding signal (z-score),[41],-0.005
same,glycan array binding signal (z-score),[42],-0.02
same,glycan array binding signal (z-score),[43],-0.159
same,glycan array binding signal (z-score),[44],-0.064
same,glycan array binding signal (z-score),[45],0.134
